In assay [1] the target is MAGE-A3 pMHC (UniProt P43357). The experiment in a line: ELISA, biotinylated pMHC on neutravidin plates, anti-histag HRP detection, after urokinase treatment. For orientation: In an ELISA, binding on a coated surface is turned into a signal by an enzyme label.
The target in assay [2] is Titin pMHC (UniProt Q8WZ42). The experiment in a line: Summary table, row 'IC50 Titin pMHC binding'; ELISA on captured biotinylated Titin pMHC (which calls the value EC50). The value is taken as that of the parental protein, since the next row gives the shift of the masked TCR.
The target in assay [3] is MAGE-A3 pMHC (UniProt P43357). The experiment in a line: Summary table, row 'IC50 MAGE-A3 pMHC binding'; ELISA on captured biotinylated MAGE-A3 pMHC (which calls the value EC50). The value is taken as that of the parental protein, since the next row gives the shift of the masked TCR.
For assay [4], the target named is Titin pMHC (UniProt Q8WZ42). The experiment in a line: Summary table, row 'Masked TCR shift' under 'IC50 Titin pMHC binding': fold shift of masked TCR-14 against parental TCR-13; ELISA.
Assay [5] has as its target MAGE-A3 pMHC (UniProt P43357). The experiment in a line: Summary table, row 'Masked TCR shift' under 'IC50 MAGE-A3 pMHC binding': fold shift of masked TCR-14 against parental TCR-13; ELISA.
Assay [6] deals with MAGE-A3 pMHC (UniProt P43357). The experiment in a line: ELISA, biotinylated pMHC on neutravidin plates, anti-histag HRP detection, after urokinase cleavage.
Assay [7] concerns the target Titin pMHC (UniProt Q8WZ42). The description is as above.

As a reminder, the EC50 is the concentration giving half of the maximal effect. Read a high EC50 as weaker potency. The term IC50 denotes the concentration that inhibits the measured activity by half.

B1: TCR-13 (TCR)
TCR alpha: MQEVTQIPAALSVPEGENLVLNCSFTDSAIYNLQWFRQDPGKGLTSLLYVRPYQREQTSGRLNASLDKSSGRSTLYIAASQPGDSATYLCAVRPGGAGPFFVVFGKGTKLSVIPNIQNPDPAVYQLRDSKSSDKSVCLFTDFDSQTNVSQSKDSDVYITDKCVLDMRSMDFKSNSAVAWSNKSDFACANAFNNSIIPEDTFFPSPESSGGHHHHHHHH
TCR beta: [sequence of about 250 residues omitted]GGGGSKAGVTQTPRYLIKTRGQQVTLSCSPISGHRSVSWYQQTPGQGLQFLFEYFSETQRNKGNFPGRFSGRQFSNSRSEMNVSTLELGDSALYLCASSFNMATGQYFGPGTRLTVTEDLKNVFPPEVAVFEPSEAEISHTQKATLVCLATGFYPDHVELSWWVNGKEVHSGVCTDPQPLKEQPALNDSRYALSSRLRVSATFWQNPRNHFRCQVQFYGLSENDEWTQDRAKPVTQIVSAEAWGRADGGGLNDIFEAQKIEWHE
For the molecule B1, the EC50 in assay [1] was determined as 0.7 nM. For the same molecule, the IC50 in assay [2] is 1 nM; in assay [3], 0.5 nM.

B2: TCR-14 (TCR)
TCR alpha: MGGVSCKDVYDEAFCWTGGGGSLSGRSDNHGSSGTKQEVTQIPAALSVPEGENLVLNCSFTDSAIYNLQWFRQDPGKGLTSLLYVRPYQREQTSGRLNASLDKSSGRSTLYIAASQPGDSATYLCAVRPGGAGPFFVVFGKGTKLSVIPNIQNPDPAVYQLRDSKSSDKSVCLFTDFDSQTNVSQSKDSDVYITDKCVLDMRSMDFKSNSAVAWSNKSDFACANAFNNSIIPEDTFFPSPESSGGHHHHHHHH
TCR beta: [sequence of about 250 residues omitted]GGGGSKAGVTQTPRYLIKTRGQQVTLSCSPISGHRSVSWYQQTPGQGLQFLFEYFSETQRNKGNFPGRFSGRQFSNSRSEMNVSTLELGDSALYLCASSFNMATGQYFGPGTRLTVTEDLKNVFPPEVAVFEPSEAEISHTQKATLVCLATGFYPDHVELSWWVNGKEVHSGVCTDPQPLKEQPALNDSRYALSSRLRVSATFWQNPRNHFRCQVQFYGLSENDEWTQDRAKPVTQIVSAEAWGRADGGGLNDIFEAQKIEWHE
As for B2, the Masked TCR shift in assay [4] was greater than 1000 x; in assay [5] it was 500 x.

B3: TCR-15 after urokinase (uPA) cleavage (TCR)
TCR alpha: MGGVSCKDVYDEAFCWTGGGGSSGGSGGSGLSGRSDNHGSSGTKQEVTQIPAALSVPEGENLVLNCSFTDSAIYNLQWFRQDPGKGLTSLLYVRPYQREQTSGRLNASLDKSSGRSTLYIAASQPGDSATYLCAVRPGGAGPFFVVFGKGTKLSVIPNIQNPDPAVYQLRDSKSSDKSVCLFTDFDSQTNVSQSKDSDVYITDKCVLDMRSMDFKSNSAVAWSNKSDFACANAFNNSIIPEDTFFPSPESSGGHHHHHHHH
TCR beta: [sequence of about 250 residues omitted]GGGGSKAGVTQTPRYLIKTRGQQVTLSCSPISGHRSVSWYQQTPGQGLQFLFEYFSETQRNKGNFPGRFSGRQFSNSRSEMNVSTLELGDSALYLCASSFNMATGQYFGPGTRLTVTEDLKNVFPPEVAVFEPSEAEISHTQKATLVCLATGFYPDHVELSWWVNGKEVHSGVCTDPQPLKEQPALNDSRYALSSRLRVSATFWQNPRNHFRCQVQFYGLSENDEWTQDRAKPVTQIVSAEAWGRADGGGLNDIFEAQKIEWHE
On to B3, for which, in assay [6], the EC50 is 1 nM. That is a single-digit nanomolar value.

B4: TCR-14 after urokinase (uPA) cleavage (TCR)
TCR alpha: B2 TCR alpha
TCR beta: [sequence of about 250 residues omitted]GGGGSKAGVTQTPRYLIKTRGQQVTLSCSPISGHRSVSWYQQTPGQGLQFLFEYFSETQRNKGNFPGRFSGRQFSNSRSEMNVSTLELGDSALYLCASSFNMATGQYFGPGTRLTVTEDLKNVFPPEVAVFEPSEAEISHTQKATLVCLATGFYPDHVELSWWVNGKEVHSGVCTDPQPLKEQPALNDSRYALSSRLRVSATFWQNPRNHFRCQVQFYGLSENDEWTQDRAKPVTQIVSAEAWGRADGGGLNDIFEAQKIEWHE
Turning to B4, the 50% effective concentration (EC50) in assay [7] stood at 5 nM.

The values above are taken from patent US20200385440A1.
